Results as given in the RNAGym collection of RNA variant scans (doi:10.1073/pnas.2313332121).
This sample is rich in variants without activity.

B1: TPR 5TU (parent)
chain: GGAUCUUCUCGAUCUAACAAAAAAGACAAAUCUGCCACAAAGCUUGAGAGCAUCUUCGGAUGCAGAGGCGGCAGCCUUCGGUGGCGCGAUAGCGCCAACGUUCUCAACUAUGACACGCAAAACGCGUGCUCCGUUGAAUGGAGUUUAUCAUG

Variants of: B1
Test: polymerase ribozyme fitness, log enrichment relative to wild type (log ratio); higher = more active; in vitro selection for triplet polymerase activity
Method in brief: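 A heterodimeric triplet polymerase ribozyme had each of its subunits mutagenized by PCR into a library, which was transcribed. One round of in vitro selection, done in triplicate, annealed each library with a biotinylated primer, its partner subunit and triplets, then incubated it frozen at −7 °C before gel excision of extended constructs, streptavidin-bead capture and RT-PCR. Fitness is the logarithm of genotype enrichment relative to wild-type enrichment, based on Illumina sequencing of inputs and outputs and inverse-variance-weighted replicate averages. A base-2 logarithm is used, and genotypes were kept only with ≥10 input reads and ≥1 read per output.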

Row | Variant | polymerase ribozyme fitness (log ratio)
1 | GGAUCUUCUCGAUCUAAUAAAAAAGACAAAUCAGCCACAAAGCUUGAGAGCAUCUUCGGAUGCAGAGGCGGCAGCCUUCGGUGGCGGGAUAGCGCCAACGGUCUCAACUAUGACACGCAAAACACGUGCUCGGUUGAAUGGAGUUUAUCAUG | ≤ -4.2
2 | GGAUCUUCUCGAUCUAACCAUAAAGACAAAUCUGCCACAAAGCUUGAGAGCAUCAUCGGAUGCAGAGGCGGCAGCCUUCGGUGGCGCGAUAGCGCGAACGUUCUCAACUAUGACACGCAAAACGCGUGCUCCAUUGUAUGGAGUUGAUCAUG | ≤ -4.2
3 | GGAUCUUCUCGAUCUAACCACAACGACAAAUCUGCCACAAAGCUUGAGAGCAUCUUCGGAUGCAGAGGCGGCAGACUUCGGUGGCGCGAUAGCGCCAACGUUCUCAACUAUGACACGCAAAAGGCGUGCUCCGUUGAAUGGAGUUUAUCAUG | ≤ -4.2
4 | GGAUCUUCUCGAUCUAACCAAAUAGACAAAUCUGCCACAAAGCUUGAGAGCAUCUUCGGAUGCAGAGGCAGCAGCCUUCGGUGGCGCGAUAGCGCCAACGUUCUCAACUAUGACACGCAAAACGCGUGCUCCGUUGAAUGAAGUUUAUCAUG | ≤ -4.2
5 | GGAUCUUCUCGAUCUAAUAAAAAAGACAAAUCUGCCACAAAACUUGAGAGCAUCUUCGGAUGCAGAGGCGGCUGCCUUCGGUGGCGCGAUAGCGUCAUCGUUGUCAACUAUGACACGCAAAACGCGUGCUCCGUUGAAUGGAGUUUAUCAUG | ≤ -4.2
6 | GGAUCUUCUCGAUCUAAUAAAAAAGACAAAUCUGCCACAAAGCUUGAGAGCAACUUCGGAUGCAGAGGCGGCAGCCUUCGGUGGCGCAAUAGCGCCAACGUUCUCAACUAUGACACUCAAAACGCGUGCUCCGUUGAAUGGAGUUUAUCAUG | ≤ -4.2
7 | GGAUCUUCUCGAUCUAAUAAAAAAGACAAAUCUGCCACAAAGCUUGAGAGCAUCUUCGGAUGCAGAGGCGGCAGCCUUCGGUGGGGCGAUAGCGCCAACGUUCUCAACUAUGACACGGAAAACGCGUGCUCCGUUGUAUGGAGUUUAUCAUG | ≤ -4.2
8 | GGAUCUUCUCGAUCUAAUAAAAAAGACAAAUCUGCCACAAAGCUUGAGAGCAUCUUCGGAUGCAGAGGCGGCAGCCUUCGGUGGCGCGAUAGCGCGAACGUUCUCAACUAUGACACGCAAAACGCGCGCUCCGUUGAAUGGAAUUUAUCAUG | -4.17
9 | GGAUCUUCUCGAUCUAAUAAAAAAGACAAAUCUGCCACAAAGCUUGAGAGCAUCUUCGGAUGCAGAGGCGGCAGCCUUCGGUCGCGGGAUAGCGCCAACGUUCUCAACUAUGAUACGCAUAACGCGUGCUCCGUUGAGUGGAGUUUAUCAUG | ≤ -4.2
10 | GGAUCUUCUCGAUCUAAUAAAAAAGACAAAUCUGCCACAAAGCUUGAGAGCAUCUUCGGAUGCAGAGGCGGCAGCCUUCGGUGGCGCGAUAGGGCCAACGUUCUCAACUAUGACACGCAAAACGCGUGCUCCGUUGAAUGGAGUUUAUCAUG | -3.19
11 | GGAUCUUCUCGAUCUAAUAAAAAAGACAAAUCUGCCACAAAGCUUGAGAGCAUCUUCGGAUGCAGAGGCGGCAGCCUUCGGUCGCGCGAUAGCGCCAACGUUCUCAACUAUGACACGCAAAACGCGUGCUCCGUUGAAUGGAGUUUAUCAUG | -1.3
12 | GGAUCUUCUCGAUCUAAUAAAAAAGACAAAUCUGCCACAAAGCUUGAGAGCAUCUUCGGAGGCAGAGGCGGCAGCCUUCGGUGGCGCGAUAGCGCCAACGUUCUCAACUAUCACACGCAAAACGCGUGCUCAGUUGAAUGGAGUUUAUCAUG | ≤ -4.2
13 | GGAUCUUCUCGAUCUAAUAAAAAAGACAAAUCUGCCACAAAGCUUGAGAGCAUCUUCGGAUGCAGAGGCAGCAGCCUUCGGUGGCGCGAUAUCGCCAACGUUCUCAACUAUGACACGCAAGACGCGUGCUCCAUUGAAUGGAGUUUAUCAUG | ≤ -4.2
14 | GGAUCUUCUCGAUCUAAUAAAAAAGACAAAUCUGCCACAAACCUUGAGAGCAUCUUCGGAUGCAGAGGCGGCGGCCUUCGGUGGCGCGAUUGCGCCAACGUUCUCAACUAUGACACGCAAAACGCGUGCUCCGUUGAAUGGAGUUGUUCAUG | ≤ -4.2
15 | GGAUCUUCUCGAUCUAAUAAAAAAGACAAAUCUGCCACAAAGCUUGAGAGCAACUUCGGAUGCAGAGGCGGCAGCCUUCGGUGGCGCGAUAGCGUCAAGGUUCUCAACUAUGACACGCAAAACGCGUGCUCCGUUGAAUGGAGUUUAUCAUG | -3.76
16 | GGAUCUUCUCGAUCUAACCGAAAAGACAAAUCUGCCACAAAGCUUGAGAGCAUCUUCGGAUGCAGAGGCGGCGUCCUUCGUUGGCGCGAUAGUGCCAACGUUCUCAACUAUGACACGCAAAACGCGUGCUCCGUUGAAUGGAGUUUAUCAGG | ≤ -4.2
17 | GGAUCUUCUCGAUCUAAUAAAAAAGACAAAUCUGCCACAAAGCUUGAGACCAGCUUCGGAUGCAGAGGCGGCAGCCUUCGGUGGCGCGAUAGCGACAACGUUCUCAACUAUGACACGCACAACGCGUGCUCCGUUGAAUGGAGUUUAUCAUG | ≤ -4.2
18 | GGAUCUUCUCGAUCUAACCAAAGAGACAAAUCUACCUCAAAGCUUGAGAGCAUCUUCGGAUGCAGAGACGGCAGCCUUCGGUGGCGCGAUAGCGCCAACGUUCUCAACUAUGACACGCAAAACGCGUGCUCCGUUGAAUGGAGUUUAUCAUG | ≤ -4.2
19 | GGAUCUUCUCGAUCUAAUAAAAAAGACAAAUCUGCCACAAAGCUUGAGAGCAUCUACGGAUGCAGAGGCGGCAGCCUUCGGUAGCGCGAUAGCGCCAACGUACUCAACUAUGACACGCAAAACGCGUGCUCCGUUGAAUGGAGAUUAUCAUG | -3.72
